Source: PubChem BioAssay AID602310 (National Center for Advancing Translational Sciences (NCATS), 2012)
The whole screen tested about 410,000 compounds, of which about 310 (0.076%) were called active. The shares of active, inactive and inconclusive entries below differ from those in the screen. Calls follow the shape of the dose curve; as a rule, active = well fitted curve in the direction sought with a large enough effect; inconclusive = small, poorly fitted or top-dose-only effect; inactive = flat fitted curve, though single readings scatter. Where the call is inconclusive, the potency comes from a doubtful curve fit.

target: DNA dC->dU-editing enzyme APOBEC-3G (Homo sapiens) (UniProt Q9HC16); test: qHTS for Inhibitors of Vif-A3G Interactions: qHTS; settings: HeLa A3G-eYFP + Vif (tagged APOBEC3G with the HIV-1 protein that degrades it), YFP fluorescence, overnight; series mostly up to 46.1 µM; activity, negative = active: at the top concentration; also: nearly all actives have a fitted effect of over 60% in size;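 as to activity, negative = active: hits raise eYFP signal because A3G escapes Vif-driven loss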
Outline: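 Read-out is eYFP fluorescence (Ex 488/Em 500-530) from Vif-expressing HeLa A3G-eYFP cells; more signal means A3G escaped Vif-mediated degradation. Cells plated overnight, compound pinned in, incubated overnight at 37 deg C.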
% is scaled to controls: 0 for no effect and ±100 for the full control effect; potency is read from the fitted curve at half-maximal effect; tags tell the direction and shape of the fitted curve.

Chain of UniProt Q9HC16 (Q9HC16 whole entry, looked up): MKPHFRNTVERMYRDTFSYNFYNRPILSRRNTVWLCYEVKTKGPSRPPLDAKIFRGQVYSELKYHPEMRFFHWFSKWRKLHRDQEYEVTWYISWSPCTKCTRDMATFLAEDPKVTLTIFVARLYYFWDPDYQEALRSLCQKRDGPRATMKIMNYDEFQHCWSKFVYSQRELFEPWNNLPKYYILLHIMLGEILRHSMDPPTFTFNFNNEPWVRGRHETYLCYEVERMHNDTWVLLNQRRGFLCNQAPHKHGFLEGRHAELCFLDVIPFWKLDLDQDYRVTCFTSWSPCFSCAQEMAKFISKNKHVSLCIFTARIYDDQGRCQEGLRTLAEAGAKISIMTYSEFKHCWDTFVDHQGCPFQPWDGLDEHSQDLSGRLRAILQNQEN

| Structure (SMILES) | activity, negative = active | Potency |
| --- | --- | --- |
| CCc1nn(CCCC(=O)NCc2cc(Br)ccc2OC)c(=O)c2cc3occc3n12 | inactive: -0.0879% |  |
| COc1ccc(Cn2nnnc2CN2CCc3ccccc32)cc1 |  | inconclusive: 5.01 µM [inhibitor, single point] |
| O=c1[nH]cnc2n[nH]nc12 |  | inconclusive: 3.98 µM [inhibitor, partial curve, poor fit] |
| CCOc1cc(CNCc2ccc(C(=O)O)cc2)ccc1OC | inactive: -5.27% |  |
| CN(Cc1ccccc1)C(=O)C1CCN(S(C)(=O)=O)CC1 | inactive: -8.68% |  |
| Cc1cc(-c2ccc(N3CCOCC3)cc2)nc2ccccc12 |  | inconclusive: 22.4 µM [inhibitor, single point] |
| Cc1cc2c(n1-c1ccc(C(=O)NCc3ccc(OC(C)C)cc3)cc1)CCCC2 |  | inconclusive: 35.5 µM [inhibitor, single point] |
| Nc1cc2c(cc1C(=O)c1cccc(Br)c1)OCCO2 |  | inconclusive: 35.5 µM [inhibitor, single point] |
| CC1=CC(=NOC(=O)c2cccc([N+](=O)[O-])c2)C=C(C)C1=O |  | inconclusive: 35.5 µM [inhibitor, single point] |
| CC(C)N1CCc2c(sc(NC(=O)c3cc4cc([N+](=O)[O-])ccc4s3)c2C(N)=O)C1 |  | active: 8.91 µM |
| N#Cc1c(-c2ccc(Cl)cc2Cl)nc2n(c1=O)CCS2 | inactive: 1.54% |  |
| COc1ccc2nc(Nc3nc4ccc(NC(C)=O)cc4s3)sc2c1 |  | inconclusive: 10 µM [inhibitor, partial curve, poor fit] |
| Cc1cc2c(n1-c1ccc(C(=O)NCCc3ccccc3)cc1)CCC(C)C2 (stereo not given) |  | inconclusive: 25.1 µM [inhibitor, single point] |
| Fc1ccc(-c2nc3c4ccccc4ccn3c2Cc2cccc(Cl)c2)cc1 |  | inconclusive: 35.5 µM [inhibitor, single point] |
| O=c1/c(=C/c2ccccn2)sc2nc3ccccc3n12 |  | inconclusive: 22.4 µM [inhibitor, partial curve, poor fit] |
| CN(N)c1nc(C(F)(F)F)nc2ccccc12 | inactive: 0.299% |  |
| Nc1nc(F)nc2c1ncn2[C@@H]1O[C@H](CO)[C@@H](O)[C@@H]1O | inactive: 4.54% |  |
| COCCN(Cc1cc2cc(C)cc(C)c2nc1Cl)C(=O)Nc1ccccc1 |  | inconclusive: 35.5 µM [inhibitor, single point] |
| COc1ccc(/C=C2\SC(=S)N(CC(=O)OCC(=O)Nc3cc(Cl)cc(Cl)c3)C2=O)cc1 | inactive: -0.751% |  |
| COc1ccc(C(=O)/C=C/c2ccccc2OC)c(OC(=O)c2ccc([N+](=O)[O-])cc2)c1 |  | inconclusive: 35.5 µM [inhibitor, single point] |
| N#CC1=C(SCC(=O)Nc2ccccc2)NC(=O)CC1c1ccco1 (stereo not given) |  | inconclusive: 10 µM [inhibitor, partial curve] |
| Cc1ccc(N2C(=O)C3CC(c4ccccc4)=C4C5C=CC(C6C(=O)N(c7ccc(C)cc7C)C(=O)C56)C4C3C2=O)c(C)c1 (stereo not given) | inactive: -0.642% |  |
| O=C(Nc1ccc(Cl)cn1)c1cccc(F)c1 |  | inconclusive: 2.51 µM [inhibitor, partial curve, poor fit] |

| Structure (SMILES) | activity, negative = active | Potency |
| --- | --- | --- |
| Cc1cc(C)n(S(=O)(=O)c2cc(C(=O)O)c(Cl)cc2Cl)n1 | inactive: -0.271% |  |
| Cc1cc(C)cc(OCc2cc(=O)n3c4c(sc3n2)CCCC4)c1 | inactive: -2.9% |  |
| COc1cccc(C#CC2=CC(=O)C[C@H](c3ccc(F)cc3)C2)c1 |  | inconclusive: 35.5 µM [inhibitor, single point] |
| O=C(Nc1ccc(C(=O)OCc2cc(=O)n3nc(C4CC4)sc3n2)cc1)c1cccc(Cl)c1 | inactive: 0.213% |  |
| c1ccc(C2CNCc3c2ccc2ccccc32)cc1 (stereo not given) |  | inconclusive: 15.8 µM [inhibitor, partial curve, poor fit] |
| CCc1ccc(C2C(C#N)=C(N)C(C#N)(C#N)C3=CCC(C(C)(C)C)CC32)cc1 (stereo not given) |  | inconclusive: 35.5 µM [inhibitor, single point] |
| COc1ccccc1C(C[N+](=O)[O-])c1c(N)n(C)c(=O)n(C)c1=O (stereo not given) |  | inconclusive: 2.51 µM [inhibitor, full curve, poor fit] |
| CN(CCOC(=O)c1cccc(Br)c1)C(C)(C)C | inactive: 1.15% |  |
| COc1ccc(N/N=C(\C=N\O)C(=O)c2ccc(OC)cc2)cc1 |  | inconclusive: 35.5 µM [inhibitor, single point] |
| CCN(CC)c1ccc2cc(-c3nc(-c4ccc(OC)cc4)cs3)c(=O)oc2c1 | inactive: 6.12% |  |
| CCN(CC(=O)Nc1ccccc1-c1ccccc1)Cc1nc2ccccc2c(=O)[nH]1 |  | active: 7.08 µM |
| C=Cn1ccnc1P(=S)(c1ccc2c(c1)c1ccccc1n2CC)c1nccn1C=C |  | inconclusive: 3.98 µM [inhibitor, full curve, poor fit] |
| C=C(C)CC1Nc2ccccc2NC1CC(=C)C (stereo not given) | inactive: -8.69% |  |
| COc1cc(/C=C/C(=O)c2ccccc2O)cc(OC)c1OC |  | inconclusive: 20 µM [inhibitor, single point] |
| CC(C)(C)c1ccc(N2C(=O)CSC2c2cccnc2)cc1 (stereo not given) | inactive: 0.588% |  |
| COc1ccccc1C=NN=C(NN=Cc1ccccc1OC)NN=Cc1ccccc1OC | inactive: -4.38% |  |
| Cc1n[nH]c(C)c1S(=O)(=O)N(CC(=O)N1CCc2ccccc21)c1ccc(C(C)C)cc1 |  | inconclusive: 35.5 µM [inhibitor, partial curve, poor fit] |
| CN(C)CCCN(C(=O)c1ccc(N2C(=O)CCC2=O)cc1)c1nc2c(F)cccc2s1 | inactive: -0.545% |  |
| O=C(NCc1ccco1)C1Cc2c(-c3cccc(F)c3)ccnc2O1 (stereo not given) |  | inconclusive: 3.98 µM [inhibitor, partial curve, poor fit] |
| COc1ccc(OC)c(Nc2nc(-c3c(C)nc4ncccn34)cs2)c1 |  | inconclusive: 17.8 µM [inhibitor, single point] |
| Cc1ccc(NC(=O)Cn2c(=O)n(-c3ccccc3)c(=O)c3ccc(C(=O)NCc4ccc5c(c4)OCO5)cc32)c(C)c1 |  | inconclusive: 22.4 µM [inhibitor, single point] |
| COc1ccc(/C=C/C=C2\NC(=S)NC2=O)cc1 |  | inconclusive: 7.08 µM [inhibitor, partial curve, poor fit] |
